This note sets out measurements from PubChem BioAssay AID2060330 (Molecular Pharmacology Branch, DTP, NCI, 2025).

The source holds more than one record for some entries. The other results are left out here. The source may hold further records. The records of an entry repeat one measurement (runs, samples, wells, individuals or studies). Counts like (3×) give the number of equal values in this list.

This assay relates to LG0703-F948-PDC spheroids with HUVEC/MSC, viability. Nature of the assay: Anticancer human tumor LG0703-F948-PDC patient-derived lung adenocarcinoma cell line growth inhibition [IpAb]. The settings on record: for viability, T/C: stronger effect = lower value. The text has this: Combinatorial screen of targeted agents with ipatasertib and abemaciclib in multi-cell type tumor spheroids
A high-throughput screen of multi-cell type tumor spheroids was designed to identify active combinations of targeted small molecules and ipatasertib or abemaciclib. Complex spheroids include a stromal component modeled by human endothelial cells (HUVEC) and fibroblasts modeled by human mesenchymal stem cells (MSCs). The concentration ranges selected for each drug and investigational agent were based upon clinically achievable concentrations if the clinical Cmax of the agent was known.
Compounds. The drugs and investigational agents: ipatasertib (NSC767898), abemaciclib(NSC768073), selumetinib (NSC741078), trametinib (758246), adavosertib (NSC754352), everolimus (NSC733504), sapanisertib (NSC764658), vemurafenib (NSC761431), venetoclax (NSC766270), copanlisib (NSC809693), apelisib (NSC765974), palbociblib (NSC758247), vemurafenib (NSC761431), dabrafenib (NSC764134), ravoxertinib (NSC781343), BMS-387032 (NSC767048), sotorasib (NSC818433), talazoparib (NSC767125) and afursertib (NSC778305), were obtained from the National Cancer Institute (NCI) Developmental Therapeutics Program Chemical Repository. The FDA-approved anticancer drug set is available from the NCI Developmental Therapeutics Program. […] The stock solutions were prepared in dimethyl sulfoxide (DMSO, Sigma-Aldrich, St. Louis, MO, cat. D2650) at 800-fold the tested concentration and stored at -70 degrees C prior to their use. All drugs and investigational agents were tested over a range starting from a high concentration at or near the clinical Cmax and decreasing in half-log increments. If the clinical Cmax for an agent had not been determined, the highest concentration tested was 10 microM.
NCI60 Cell Culture. NCI60 cell lines were obtained from the NCI Developmental Therapeutics Program Tumor Repository. For each lot of cells, the Repository performed Applied Biosystems AmpFLSTR Identifiler testing with PCR amplification to confirm consistency with the published Identifier STR profile for each cell line. Cells were kept in continuous culture for no more than 20 passages. The optimal seeding densities for each of the cell lines at each time point assessed were determined prior to performing the concentration response studies. Briefly, the NCI60 human tumor lines were grown as monolayers in RPMI 1640 medium supplemented with 10% FBS and 2 mmol/L L-glutamine. […]
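Also: spheroids exposed to compounds for seven days before readout.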
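For viability, T/C in this document: T/C percent relative to DMSO vehicle wells set as 100% viability.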

For `CCN1CCN(Cc2ccc(Nc3ncc(F)c(-c4cc(F)c5nc(C)n(C(C)C)c5c4)n3)nc2)CC1`, the viability, T/C (as a rule, the result in the treated group divided by that in the control group, in per cent) (compound alone 0.01 µM) was 94.3, 94.6, 98.5, 97.8, 108, 97.1 (2×), 96.2, 96.7, 106, 85.4, 98.9, 112% and the viability, T/C (compound alone 1 µM) was 90.4, 69.4, 83.6, 78.5 (2×), 97.2, 81.9, 71.9, 72.4, 99.9, 71.5, 86.5, 85.2%.

With `CC(C)NCC(C(=O)N1CCN(c2ncnc3c2C(C)CC3O)CC1)c1ccc(Cl)cc1` (centres undefined), the viability, T/C (compound alone 1 µM) is 40, 46.6, 65.2, 47.6, 52, 56.3, 54.7, 54.8, 50, 51.9, 50.3, 45.3, 56.4%. In addition, under “compound alone, run of 06/01/2021”, the IC50 – broadly, the concentration that gives 50% inhibition – is 530 nM, 851 nM, 3.78 µM, 850 nM, 1.45 µM, 2.16 µM, 1.53 µM, 1.52 µM, 1.23 µM, 933 nM, 1.8 µM, 748 nM, 2.04 µM.
